# Experimental data taken from the supplement of paper PMC4166925.
# ± gives the standard deviation of the averaged measurements. In all, about 33,000 sequences were measured (“E-score (dimensionless, -0.5 to 0.5)”: median about -0.046, highest 2% from about 0.36 on). The list shows a part of the results.
# Test system: T1, SpTbr T-box DNA-binding domain (GST fusion)
# T1 sequence: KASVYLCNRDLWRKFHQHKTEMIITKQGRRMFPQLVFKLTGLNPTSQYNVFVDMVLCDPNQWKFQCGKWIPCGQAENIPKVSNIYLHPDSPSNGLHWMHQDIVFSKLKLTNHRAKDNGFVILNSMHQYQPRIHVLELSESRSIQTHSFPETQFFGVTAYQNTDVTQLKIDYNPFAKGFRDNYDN
# Assay: PBM E-score of 8-mer (E-score (dimensionless, -0.5 to 0.5)); Tbr is Tbrain of the sea star Patiria miniata (Pm) or the sea urchin Strongylocentrotus purpuratus (Sp); higher = stronger binding preference; most listed sequences are background and not binding sites
# Conditions: the construct has about 5 more residues each side
# Procedure, shortened: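 Universal Agilent oligonucleotide arrays, made double-stranded by primer extension, were incubated with 200 nM GST-fused Tbr T-box DNA-binding domain in PBS (pH 7.5). The protein was expressed in BL21 E. coli at 20 °C and purified by glutathione affinity chromatography. After scanning and quantification, the Universal PBM Analysis Suite assigned an enrichment E-score to each ungapped 8-mer, averaged over duplicate arrays.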
row,Sequence,PBM E-score of 8-mer
1,CATGAGCG,0.0747 ± 0.043
2,GACCTATC,-0.0644 ± 0.039
3,AATAAACT,-0.204 ± 0.056
4,AAGCACGC,-0.038 ± 0.06
5,GTCCTGCA,-0.197 ± 0.032
6,ACATTTCG,0.0619 ± 0.047
7,ATGGTCCG,-0.11 ± 0.029
8,CCCCCCGA,-0.258 ± 0.029
9,CAAGAAAC,-0.237 ± 0.016
10,CGGTGTTA,0.3373 ± 0.0021
11,ATGCGGGC,-0.236 ± 0.023
12,ACATCAGT,0.0637 ± 0.059
13,ATGCACGC,-0.0415 ± 0.12
14,CGTACAAC,-0.00318 ± 0.038
15,GATCGCCC,0.0191 ± 0.023
16,ACTAGGTC,-0.14 ± 0.024
17,CGATTTAC,0.195 ± 0.0048
18,AATGTTTA,-0.0915 ± 0.04
19,ATTACCCA,-0.133 ± 0.04
20,TCTTATCA,-0.0338 ± 0.0036
21,CGACGGCC,-0.215 ± 0.012
22,ACGAGCCG,-0.011 ± 0.0085
23,ACAAGCTA,-0.0512 ± 0.041
24,ACGGGGTG,0.316 ± 0.016
25,TGAATTAA,-0.122 ± 0.026

row,Sequence,PBM E-score of 8-mer
1,CCTTCACC,0.14 ± 0.013
2,AGATTGGG,-0.309 ± 0.03
3,AAAACGCT,-0.158 ± 0.036
4,AGGAATTC,-0.303 ± 0.097
5,CAACTATA,-0.105 ± 0.033
6,ACCGTCCA,-0.108 ± 0.015
7,ATGCAGCA,-0.145 ± 0.0088
8,CAACGGTG,0.0338 ± 0.00058
9,CACCGCGA,0.202 ± 0.045
10,ACGTCAAT,0.0288 ± 0.029
11,AAAATTTC,-0.186 ± 0.091
12,TGGGCTAA,-0.0697 ± 0.044
13,AACGGTCG,0.084 ± 0.0082
14,CCTCGGCG,-0.129 ± 0.13
15,AGGAGCCC,-0.23 ± 0.022
16,AAGTCGAC,0.133 ± 0.01
17,AAAACACA,0.106 ± 0.081
18,AAAAAAAG,-0.0758 ± 0.034
19,CCTCAGTC,0.00568 ± 0.037
20,GATGAAAA,0.0525 ± 0.042
21,CTTCAACA,0.136 ± 0.049
22,AAATGCTC,-0.0185 ± 0.052
23,CTTCTTAA,-0.0647 ± 0.059
24,AGCAATTC,0.0799 ± 0.11
25,AGGGCGCG,0.324 ± 0.057

row,Sequence,PBM E-score of 8-mer
1,AAACTCAG,-0.301 ± 0.017
2,CGCCCGAA,-0.0276 ± 0.04
3,CCACCATC,0.0489 ± 0.024
4,ATTCCATA,-0.128 ± 0.062
5,TCACCGGA,-0.29 ± 0.0093
6,GGAGAAAC,-0.128 ± 0.045
7,CGCGGCGC,0.204 ± 0.064
8,ACATAGAT,-0.0781 ± 0.0099
9,CAAGAGAC,-0.123 ± 0.035
10,ATCGCTGA,0.00415 ± 0.019
11,CCCCACAC,0.334 ± 0.018
12,CCCCTTTC,-0.132 ± 0.052
13,ATGTGATG,0.329 ± 0.009
14,ATCAAAGC,-0.281 ± 0.0077
15,TAGCGAAA,-0.0569 ± 0.011
16,TAGCTACA,-0.226 ± 0.0092
17,ACAGCTGT,0.316 ± 0.013
18,TCGGCCGA,-0.0448 ± 0.043
19,TCCAGACA,0.0637 ± 0.019
20,GACTTGTA,-0.0936 ± 0.046
21,AGCCCAGG,-0.273 ± 0.029
22,AACTGAGT,-0.0793 ± 0.048
23,CCTCCTCA,0.0831 ± 0.027
24,AGACACGC,0.134 ± 0.021
25,AATGGTAT,-0.0995 ± 0.053

row,Sequence,PBM E-score of 8-mer
1,GAGACGCC,-0.168 ± 0.1
2,GTAACTCA,0.0452 ± 0.039
3,CAAACGGA,-0.0112 ± 0.027
4,ACACTGCG,0.2 ± 0.067
5,CTACCTCC,0.0136 ± 0.024
6,AAGGAGGG,-0.0491 ± 0.018
7,AAAGTGCA,0.128 ± 0.027
8,ACCCATAC,-0.178 ± 0.0069
9,ACTGCCCT,0.0181 ± 0.01
10,AAAAAGGC,0.069 ± 0.037
11,CGGATAAG,-0.102 ± 0.017
12,CGTGGCCC,-0.0587 ± 0.053
13,AATCTCGA,-0.0331 ± 0.011
14,GGGGTGCA,0.0939 ± 0.048
15,CGACTGCG,-0.0458 ± 0.08
16,ACCATATA,-0.338 ± 0.022
17,GTCATGAC,-0.0503 ± 0.035
18,ACCAAATG,-0.0159 ± 0.069
19,CGAAACAA,-0.0107 ± 0.018
20,ACCCTAGT,-0.0332 ± 0.021
21,AAGAGCGA,-0.199 ± 0.0033
22,GAAACTCA,0.0591 ± 0.029
23,GCAATCCA,0.0612 ± 0.022
24,GGGCCCAC,-0.125 ± 0.074
25,ACCGCTCA,-0.0847 ± 0.031

row,Sequence,PBM E-score of 8-mer
1,ATTTCGAC,0.0456 ± 0.049
2,AATTTGAT,-0.22 ± 0.0049
3,CGTCGCTC,-0.0419 ± 0.15
4,CGGGAGTA,-0.0751 ± 0.05
5,GCAACAGC,0.064 ± 0.047
6,ACTCGGAA,-0.0578 ± 0.023
7,TTCAGCAA,0.1121 ± 0.00026
8,ACAACCGC,0.123 ± 0.059
9,TATCGGCA,0.0114 ± 0.0094
10,CCCCAATC,0.0403 ± 0.017
11,CGTCCTAC,-0.306 ± 0.079
12,TCCTTACA,-0.0729 ± 0.062
13,ATAGTAAT,-0.0977 ± 0.013
14,AGACCAGG,-0.0868 ± 0.027
15,AGTTACAA,-0.08804 ± 0.00042
16,ATCTGGAA,-0.192 ± 0.14
17,CCGTACAC,0.0596 ± 0.042
18,CAAGGGGG,-0.213 ± 0.046
19,GCCACGCA,0.0155 ± 0.021
20,CACGCGTA,0.212 ± 0.014
21,AATGCTGC,-0.147 ± 0.055
22,CTGTACCA,-0.0774 ± 0.055
23,ATGACGTG,0.0931 ± 0.037
24,ACGAAGCC,-0.00822 ± 0.065
25,GACCACGA,-0.0723 ± 0.039

row,Sequence,PBM E-score of 8-mer
1,TCTATGCA,-0.204 ± 0.024
2,ACACTAAG,0.223 ± 0.041
3,GTGCTAGA,0.286 ± 0.022
4,GGAAAAAC,-0.142 ± 0.13
5,GGCATTCA,0.0268 ± 0.056
6,GCAGTGAC,0.0883 ± 0.023
7,AACTAGAT,-0.281 ± 0.02
8,GACGGCGC,0.141 ± 0.0081
9,AGCGCAAA,0.176 ± 0.012
10,GAACATCC,-0.117 ± 0.019
11,CCCATACC,-0.0855 ± 0.074
12,CTGTCTCC,-0.11 ± 0.084
13,ACGCTCCT,0.066 ± 0.0035
14,TACAGGTA,-0.0989 ± 0.0047
15,AAATCACT,-0.0453 ± 0.062
16,TGCTGAAA,0.0281 ± 0.029
17,AGCGCATC,-0.00261 ± 0.00078
18,CATCGCGG,0.173 ± 0.036
19,ATGCCATG,-0.0937 ± 0.081
20,CGAGACGA,0.11 ± 0.022
21,GGCGCCCC,-0.152 ± 0.031
22,ATTAGGCA,0.119 ± 0.0095
23,AGGAATAT,-0.15 ± 0.019
24,AAACCGGC,-0.078 ± 0.0037
25,CCTATCAC,0.282 ± 0.046

row,Sequence,PBM E-score of 8-mer
1,GCTTGCAC,0.186 ± 0.012
2,CAGGTTGC,0.111 ± 0.087
3,CCGGCTAG,-0.0855 ± 0.03
4,GGCCACCC,-0.109 ± 0.015
5,GGGAGAAA,-0.163 ± 0.018
6,GTGTATTA,0.0221 ± 0.022
7,AGTGCACT,-0.0755 ± 0.013
8,ACTGAACT,-0.166 ± 0.0098
9,AGGCTGCA,0.0119 ± 0.073
10,GACCTATA,-0.116 ± 0.02
11,CGCAGCCC,-0.144 ± 0.013
12,GGACAGCC,-0.132 ± 0.019
13,GGCCGACA,0.124 ± 0.0069
14,AGCGGCCG,0.00554 ± 0.11
15,CGGCTTCC,-0.121 ± 0.064
16,AACCCTCA,0.00879 ± 0.079
17,GCGCTAGC,0.227 ± 0.014
18,CACATTGG,0.284 ± 0.039
19,ATCAATCA,0.108 ± 0.021
20,CGGCTGAA,-0.231 ± 0.021
21,ATCTGGAG,-0.121 ± 0.061
22,TAGGTTGA,0.0129 ± 0.0079
23,CCGTGTGC,0.0129 ± 0.03
24,GCAAGACC,-0.158 ± 0.0079
25,CCTTCGGC,-0.184 ± 0.065

row,Sequence,PBM E-score of 8-mer
1,ACTAGTGG,0.133 ± 0.029
2,AGTCTGTC,-0.183 ± 0.063
3,AGAGACGG,-0.0377 ± 0.014
4,ATAGCAAC,0.146 ± 0.025
5,AAGAGGGA,-0.0591 ± 0.016
6,CGACGCAA,-0.045 ± 0.1
7,TCGCCGCA,-0.0789 ± 0.033
8,AACTTCTA,-0.103 ± 0.0015
9,TAATACCA,-0.0312 ± 0.015
10,AGCGTCGG,-0.00722 ± 0.054
11,ACAGAGAG,-0.00734 ± 0.04
12,CCAGTTTA,-0.0914 ± 0.029
13,CGCAGGCG,0.247 ± 0.043
14,ACGAGACC,-0.0823 ± 0.034
15,AGCGATAG,0.0236 ± 0.061
16,CCATGTTA,-0.0652 ± 0.0067
17,CCTCGTAA,-0.0845 ± 0.052
18,TAGGCGAA,0.0827 ± 0.01
19,AGGACCTA,-0.217 ± 0.08
20,CAGGGCGG,-0.142 ± 0.049
21,AACAACGA,-0.00856 ± 0.0023
22,GCGGTCAC,0.207 ± 0.043
23,AGGTCACA,0.267 ± 0.032
24,AATGACAA,0.0868 ± 0.0078
25,CGTCAAAC,0.132 ± 0.029

row,Sequence,PBM E-score of 8-mer
1,AACCGCTA,0.141 ± 0.0089
2,ATCAATAA,-0.264 ± 0.016
3,CGCTGCGC,0.0513 ± 0.1
4,AAGTCGAA,-0.3 ± 0.051
5,CTTTGAAA,-0.284 ± 0.062
6,TCAGTCCA,-0.0208 ± 0.089
7,GCTGTCCA,-0.0788 ± 0.0064
8,AACCAATT,-0.112 ± 0.051
9,AAGCTAGT,0.0947 ± 0.017
10,CCAGTTCC,-0.105 ± 0.096
11,TATAGCCA,-0.00579 ± 0.029
12,CGGCGGCA,0.106 ± 0.037
13,CGGCAGTC,-0.119 ± 0.026
14,ATACGTTG,-0.0976 ± 0.014
15,CGCATCAC,0.241 ± 0.072
16,ATCTCGCC,0.251 ± 0.012
17,TCCGGCCA,-0.205 ± 0.009
18,AAAGATCT,-0.1 ± 0.035
19,TACTTATA,-0.0325 ± 0.022
